About 2,200 (0.71%) of roughly 310,000 compounds showed an effect of 50% or more. The effect is printed as a negative number. This is one part of the list.
Biological target: human ether-à-go-go-related gene (hERG) potassium channel (human, UniProt Q12809)
Test: primary screen, population patch clamp on CHO cells stably expressing hERG

Chain of human ether-à-go-go-related gene (hERG) potassium channel (Q12809 whole entry, looked up): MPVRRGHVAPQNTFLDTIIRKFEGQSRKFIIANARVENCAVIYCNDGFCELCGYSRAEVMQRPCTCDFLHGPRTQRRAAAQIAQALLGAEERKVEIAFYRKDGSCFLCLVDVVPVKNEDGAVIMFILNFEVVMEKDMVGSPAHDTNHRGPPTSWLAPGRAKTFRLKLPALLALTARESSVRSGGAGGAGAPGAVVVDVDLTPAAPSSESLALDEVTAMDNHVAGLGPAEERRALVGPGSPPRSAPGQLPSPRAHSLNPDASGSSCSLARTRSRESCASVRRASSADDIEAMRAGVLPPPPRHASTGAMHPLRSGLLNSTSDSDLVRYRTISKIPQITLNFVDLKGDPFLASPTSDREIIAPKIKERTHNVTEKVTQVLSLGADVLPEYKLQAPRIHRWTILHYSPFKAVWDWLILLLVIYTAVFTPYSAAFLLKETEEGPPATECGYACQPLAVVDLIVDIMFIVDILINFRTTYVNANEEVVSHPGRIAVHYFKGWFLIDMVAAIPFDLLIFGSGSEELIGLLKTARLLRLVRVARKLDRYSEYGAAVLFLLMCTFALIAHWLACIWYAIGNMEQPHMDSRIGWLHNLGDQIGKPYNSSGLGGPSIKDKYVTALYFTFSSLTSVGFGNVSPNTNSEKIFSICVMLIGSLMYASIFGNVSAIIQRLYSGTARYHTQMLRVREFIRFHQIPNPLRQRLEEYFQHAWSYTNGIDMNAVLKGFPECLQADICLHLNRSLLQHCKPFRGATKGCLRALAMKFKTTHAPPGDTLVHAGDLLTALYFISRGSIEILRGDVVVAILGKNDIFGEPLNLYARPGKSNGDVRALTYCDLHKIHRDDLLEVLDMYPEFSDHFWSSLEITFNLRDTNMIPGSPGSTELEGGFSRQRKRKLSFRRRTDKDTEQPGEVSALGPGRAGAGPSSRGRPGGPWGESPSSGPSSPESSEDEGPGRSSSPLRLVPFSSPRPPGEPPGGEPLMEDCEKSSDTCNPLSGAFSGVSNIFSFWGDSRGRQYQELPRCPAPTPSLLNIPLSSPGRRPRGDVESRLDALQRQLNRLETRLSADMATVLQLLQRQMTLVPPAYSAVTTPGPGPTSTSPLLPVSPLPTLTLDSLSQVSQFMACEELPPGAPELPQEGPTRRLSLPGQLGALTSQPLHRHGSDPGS

SMILES	hERG current change (%, negative = inhibition) at 1uM [%]
CCCC(=O)N(CCN(Cc1ccccc1)C(=O)CCC)Cc1ccccc1	-12.5
COc1ccc([C@H]2/C=C\CN(C(=O)[C@H](Cc3ccccc3)NC(=O)OCC3c4ccccc4-c4ccccc43)CC(=O)N2Cc2ccc(F)cc2)cc1	7.66
Cn1c(SC2C(=O)CC(C)(C)CC2=O)nnc1-c1ccco1	7.69
CN(CC(=O)Nc1ccc(F)cc1)C(=O)c1cccc(S(=O)(=O)N2CCN(c3ccc(F)cc3)CC2)c1	7.64
COC(=O)c1cc2c(ccn2-c2ccc(F)cc2)n1CC(C)C	17.4
COc1ccc(S(=O)(=O)N2CCC(C(=O)NCCC(=O)NCc3cccc(OC)c3)CC2)cc1	14.2
O=P(O)(CCc1ccccn1)CN1CCCCC1	0.435
CC1(C)OC(C(=O)NC2CCCCC2)C(C(=O)NC2CCCCC2)O1 (centres unmarked)	15.4
Cc1ccc(-n2nnnc2SCC(=O)N2CCc3ccccc3C2)cc1	0.769
C/C(N)=C(/C#N)C(=O)CSc1nc2cc(Cl)ccc2c(=O)n1Cc1ccco1	9.63
COc1ccccc1C1/C(=C(/O)c2ccc(C)cc2)C(=O)C(=O)N1CCN1CCOCC1 (centres unmarked)	1.1
Cc1ccc(S(=O)(=O)NC(CC(=O)NCC2CCCO2)c2ccccc2)cc1 (centres unmarked)	19.1
CC1CCN(c2ccc3nnc(CCC(=O)N4CCN(c5ccc(F)cc5)CC4)n3n2)CC1	-22.9
CC(=O)Nc1ccccc1OC(=O)N1CCOCC1	15.8
COc1ccccc1NS(=O)(=O)c1ccc2oc(SCC(C)=O)nc2c1	14.4
COc1ccc(OCc2nnc(SC(C)C(=O)Nc3nccs3)n2-c2ccccc2)cc1 (centres unmarked)	0.543
c1ccc(-n2nnnc2NC2CCCCCC2)cc1	12.5
CC(C)(C)c1ccc(S(=O)(=O)N2CCC(c3nc4ccc(Cl)cc4[nH]3)CC2)cc1	7.6
COCCn1c(C)cc(C(=O)COC(=O)C23CC4CC(CC(O)(C4)C2)C3)c1C	7.62

SMILES	hERG current change (%, negative = inhibition) at 1uM [%]
CCN(CC)c1ccc(/C=N/NC(=O)c2cccc(S(=O)(=O)N3CCOCC3)c2)c(O)c1	-2.6
COc1cccc(CNC(=O)CN(c2ccc(C(C)C)cc2)S(=O)(=O)c2c(C)noc2C)c1	6.88
N=C1SCC(=O)N1c1ccc(Cl)cc1	12.7
O=C(O)/C=C/C(=O)c1ccc2c(c1)NC(=O)CO2	13.2
Cc1cccc(NC(=O)CCc2nnc3ccc(N4CCC(C)CC4)nn23)n1	16.9
Cc1ccc(/C=C2/C(=O)ON=C2c2ccccc2)o1	6.9
NNC(=O)c1cccc(COc2ccc(Br)cc2)c1	-11
CCC(C)c1ccc(NC(=O)CC(C)=O)cc1 (centres unmarked)	4.37
CCCc1nc2c(s1)CCc1onc(-c3ccc(OC)cc3)c1-2	4.97
Cc1cc(C)c(S(=O)(=O)N2CCN(C(=O)c3cccs3)CC2)c(C)c1	5.5
O=C(Cc1cccs1)NNC(=S)NCc1ccco1	8.62
CCc1ccc(NS(=O)(=O)c2ccc3c(c2)oc(=O)n3C)cc1	11.7
CCOc1ccccc1/C=N/n1c(C2CCCCC2)n[nH]c1=S	15.1
COc1cccc(CN2CCN(Cc3ccc4c(NC(C)=O)cccc4n3)CC2CCO)c1 (centres unmarked)	6.22
c1ccc2sc(N3CCNCC3)nc2c1	12.3
COc1ccc(/C=C2/Sc3ccc(C(=O)N4CCOCC4)cc3NC2=O)cc1OC	25.5
COc1ccc(N2C(=O)CC(N3CCN(S(=O)(=O)c4c(C)cc(C)cc4C)CC3)C2=O)cc1 (centres unmarked)	-1.62
CCOC(=O)Nc1cc(OCC)c(NC(=O)C2CC2)cc1OCC	9.61
Cn1c(=O)c(=O)n(C)c2cc(S(=O)(=O)CCC(=O)Nc3cccc(C(F)(F)F)c3)ccc21	14.6

SMILES	hERG current change (%, negative = inhibition) at 1uM [%]
O=C(NS(=O)(=O)c1ccc2c(c1)OCCO2)c1ccccc1	21.2
CCCC(=O)Nc1nnc(-c2ccccc2)o1	11.7
O=S(=O)(Cc1ccc(Cl)cc1)NCc1cccnc1	9.04
Cl.O=C(OC[C@@H]1CCCN2CCCC[C@H]12)c1cc2ccccc2oc1=O	-14.5
CS(=O)(=O)c1ccc(Cl)c(NC(=O)c2cccc(Br)c2)c1	2.54
COc1ccc(Nc2ccc(C(N)=O)cc2[N+](=O)[O-])cc1	13.4
Cc1cc(F)ccc1S(=O)(=O)Nc1ccc(O)c(Sc2ncn[nH]2)c1	20.6
Fc1ccc(CNC(=S)Nc2ccc(OC(F)F)cc2)cc1	-2.84
CN(C)/C=C1\N=C(c2ccccc2)OC1=O	11.2
COc1ccc(C(=O)Nc2c(C)cc(C)cc2C)cc1OC	20.7
N#Cc1c(N)n(-c2cccc(O)c2)c2nc3ccccc3nc12	-0.12
CCOC(=O)C1CCN(CC(O)COc2ccc(C(C)(C)C)cc2)CC1.Cl (centres unmarked)	-53.2
COC(=O)C1CCN(C(=O)c2ccc(SC)cc2OC)CC1	1.02
Cc1cc(C)n2nc(C(=O)NCc3ccco3)nc2n1	8.14
C=CCn1c(=O)[nH]c2nc3cc(N=CN(C)C)c(C)cc3nc2c1=O	3.52
Cc1cccc(C)c1OCc1cc(C(=O)NCC2COCCO2)no1 (centres unmarked)	5.54
CCOC(=O)c1ccc(N=c2sc(C(=O)OC)cc(=O)n2CCCN2CCOCC2)cc1.Cl	7.48
CC(C)C(=O)Nc1c(C(=O)c2ccc(F)cc2)oc2ccccc12	12.2
